Results taken from PubChem BioAssay AID1794842 (National Center for Advancing Translational Sciences (NCATS), 2023).
In all, about 2,800 compounds went through this assay and fewer than 10 were called active. Calls follow the shape of the dose curve; as a rule, active = well fitted curve in the direction sought with a large enough effect; inconclusive = small, poorly fitted or top-dose-only effect, or another doubt; inactive = no such curve, though single readings can be large or run the other way. Some of the results follow.

biological target: Metallo-beta-lactamase type 2 (Klebsiella pneumoniae) (UniProt C7C422); test: qHTS to identify inhibitors of the New Delhi Metallo-beta-lactamase (NDM): Meropenem screen against the machine-based learning selections.; also: % of control where 0% means no effect; settings: Purified NDM-1, meropenem hydrolysis, absorbance 300 nm; at 38.4 µM (top of the series) unless noted
Sequence of UniProt C7C422 (C7C422 whole entry, looked up): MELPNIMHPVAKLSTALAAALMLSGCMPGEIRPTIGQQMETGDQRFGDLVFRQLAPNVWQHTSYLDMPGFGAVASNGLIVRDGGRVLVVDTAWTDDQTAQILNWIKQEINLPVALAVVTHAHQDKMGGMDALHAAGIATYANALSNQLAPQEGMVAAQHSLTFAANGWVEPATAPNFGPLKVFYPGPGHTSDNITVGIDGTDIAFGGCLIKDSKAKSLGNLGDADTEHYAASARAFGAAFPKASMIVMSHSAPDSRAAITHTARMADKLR
Procedure, shortened: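 NDM-1 (2 nM final) in 50 mM HEPES pH 7.0, 1 uM Zn2SO4, 0.01% Tween20 was preincubated with compounds for >30 min. Nitrocefin (16.7 uM final) was read at 485 nm after 15 min, and meropenem (50 uM final) at 300 nm after 30 min.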

| Structure (SMILES) | activity change, negative = inhibition |
| --- | --- |
| Fc1ccccc1Nc1cnc2ccc(-c3ccccc3)nn12 | inactive: 14.8% [at 57.5 µM] |
| CC(C)N1CC[C@@H]2[C@H]1C(=O)NC[C@H](CCC(=O)N1CCC(O)CC1)N2C | inactive: 1.52% [at 57.5 µM] |
| OC1(CNCc2nc(-c3ccncc3)n[nH]2)CNCCOC1 (centres undefined) | inactive: 21.5% |
| O=C(NC[C@H]1Cn2ccnc2CO1)C1CCCC1 | inactive: -1.56% [at 76.7 µM] |
| COc1ccc(C(=O)NCc2nnc3c(-c4nc(C5CC5)no4)cccn23)c(C)c1 | inactive: 9.03% |
| O=C1CCC2(CCCO2)CCN1Cc1ccccc1 (centres undefined) | inactive: 0.271% |
| O=C(Cc1c[nH]c2ncc(-c3cccnc3)cc12)NCCc1ccccn1 | inactive: 24.8% [at 57.5 µM] |
| O=C(C[C@@H]1O[C@H](CNC(=O)c2ccco2)[C@@H](O)[C@H]1O)NCc1ccc(F)cc1 | inactive: 65.1% [at 57.5 µM] |
| COCCNC(=O)[C@@H]1CCC[C@@H](NC(=O)C2CC2)CN(C)C(=O)C1 | inactive: 1.87% [at 57.5 µM] |
| COc1cccc(F)c1C(=O)N1C[C@H](N)C[C@H]1C(=O)NC(C)C | inactive: 0.612% |
| CN1C(=O)CCC2(CNC(=O)c3ccco3)CCC=C12 (centres undefined) | inactive: -0.938% |
| COc1cccc(NC(=O)N[C@H]2[C@H](O)[C@@H](N3CCN(c4ccccc4)CC3)[C@@H]3OC[C@H]2O3)c1 | inactive: 0.104% |
| O=C(c1ccc(N2CC3CC(C2)[C@H]2CCCC(=O)N2C3)nc1)N1CCN(c2cccc(Cl)c2)CC1 (some centres undefined) | inactive: 5.83% |
| COc1cccc(CN2CCNc3cnc(Nc4ccccc4)cc3C2)c1 | inactive: 9.38% [at 57.5 µM] |
| O=C(Cc1c[nH]c2ncc(-c3cccnc3)cc12)NC1CCC1 | inactive: 15.2% [at 57.5 µM] |
| O=C(Cc1c[nH]c2ncc(-c3ccccc3)cc12)Nc1cccnc1 | inactive: 0.427% [at 57.5 µM] |
| COc1ccc2c(c1)CCN=C2C[C@H]1CN(C(=O)c2cccs2)CC[C@H]1CC(=O)O | inactive: 16.1% [at 57.5 µM] |
| COc1ccc(C(=O)Nc2nc3c(s2)C[C@@H]2[C@](C)(CO)[C@H](O)CC[C@@]2(C)[C@@H]3CC(=O)NC2CCCC2)cc1 | inactive: 8.72% |
| COc1ccc([C@@H](NC(=O)c2ccc3cccc(F)c3n2)C2CC(O)C2)cn1 (some centres undefined) | inactive: 3% |
| CSCC(=O)N[C@H]1CCN2C(=O)c3cc(-c4ccccc4F)ccc3NC(=O)[C@H]12 | inactive: -2.09% [at 57.5 µM] |
| CN1CCC(NC[C@H]2O[C@@H](CO)[C@@H](O)[C@H]2N2CCN(c3ncccn3)CC2)CC1 | inactive: 73% |
| CC1(CCCCc2ccccc2)COc2ccc(C(=O)Nc3cccnc3)cc2N1 (centres undefined) | inactive: 2.61% [at 57.5 µM] |
| CCOCCn1nc(C)cc1C(=O)N1C[C@@H](C)[C@](O)(C2CC2)C1 | inactive: -1.17% |
| NCc1cc(NC(=O)c2ccccn2)cc(C(=O)N2CC[C@H]3CNC[C@H]32)c1 | inactive: 0.619% |
| O=C(Cc1c[nH]c2ncc(-c3ccccc3)cc12)NC1CCOCC1 | inactive: 4.6% [at 57.5 µM] |

| Structure (SMILES) | activity change, negative = inhibition |
| --- | --- |
| Cc1cccc(CN2CCCC3(CCN(Cc4cccc(O)c4)C3)C2)c1 (centres undefined) | inactive: 1.21% |
| COc1ccc(C[C@H](NC(=O)C2=C[C@@H](NC(=O)CSCC(=O)O)[C@@H](O)[C@H](O)C2)C(N)=O)cc1 | inactive: -3.01% |
| Fc1ccc(NC(=S)N[C@H]2CO[C@H]3[C@@H]2OC[C@@H]3n2nnnc2-c2ccc3c(c2)OCO3)cc1 | inactive: 2.33% |
| CN(Cc1ccccc1)Cc1cn([C@H]2CO[C@H]3[C@@H]2OC[C@@H]3NCC2CCCCC2)nn1 | inactive: 0.56% [at 57.5 µM] |
| COC(=O)[C@H](Cc1ccc(OC)cc1)NC(=O)[C@H]1CN(C(=O)c2cccnc2)CCN1S(C)(=O)=O | inactive: -2.32% |
| COc1cccc(N2CCN(C(=O)c3cn4ccnc(-c5ccccc5)c4n3)CC2)c1 | inactive: 22.8% |
| COc1c(F)cccc1C(=O)N1CCc2onc(-c3ccccc3F)c2C1 | inactive: -0.466% |
| Cc1noc2c(-c3cccnc3NCc3cnccn3)cc(-c3ccccc3)nc12 | inactive: 2.22% [at 57.5 µM] |
| O=C(NCc1nc(-c2ncccn2)no1)C1CC2(CCNCC2)CN1 (centres undefined) | inactive: 14.1% |
| O=C(Nc1cccc(C(F)(F)F)c1)N[C@H]1CO[C@H]2[C@@H]1OC[C@@H]2Nc1nccc(-c2ccc(-c3ccccc3)cc2)n1 | inactive: 5.74% |
| CC(=O)N1CCCCC1c1nc(-c2ccccc2)n[nH]1 (centres undefined) | inactive: -0.619% |
| C=CCN(C)C(=O)C[C@@H]1c2nc(NC(=O)c3cccs3)sc2C[C@@H]2[C@](C)(CO)[C@H](O)CC[C@]21C | inactive: 12.1% |
| COC[C@H]1CCCN1Cc1nc(C2(O)CCN(Cc3ccccc3C(F)(F)F)CC2)cs1 | inactive: 1.02% |
| Cc1ccc2c(n1)N(C)[C@H](CO)CCN(Cc1cccnc1)C2 | inactive: 3.46% [at 57.5 µM] |
| O=C(Cc1ccc(Cl)cc1)N1CCC([C@@H]2CNC[C@H]2CO)CC1 | inactive: 2.9% |
| C[C@@H](NC(=O)N1CCOC[C@H]1c1ncc(-c2ccc(F)cc2)[nH]1)c1ccccc1 | inactive: -0.215% [at 57.5 µM] |
| C[C@@H]1CN(C(=O)c2cccc(-c3ncc[nH]3)c2)CC[C@@]1(O)C1CCOCC1 | inactive: 7.88% |
| COc1cccc(-c2cccc(CCOc3cnc4c(ccn4CC(=O)O)c3)c2)c1 | inactive: 9.46% [at 57.5 µM] |
| NC(=O)c1ccc(-c2ncc3cnc(-c4cccc(F)c4)cn23)cc1 | inactive: 33.6% [at 57.5 µM] |
| CN(C)CCCNC(=O)C1CCCN(S(=O)(=O)c2ccccc2)CCC(=O)NCC1 (centres undefined) | inactive: -2.89% |
| COc1ccccc1C(=O)Nc1ccnn1C1CCN(C(=O)CCN)CC1 | inactive: 41.4% |
| CCOC(=O)C1CCN(C(=O)c2ccc3c(c2)N(CC)C2CCCCCN2C3=O)CC1 (centres undefined) | inactive: 1.8% |
| CC1=C[C@@H](CN2CCN(CCO)CC2)[C@H](C(C)C)C[C@H]1Cc1nnc(-c2ccccc2F)o1 | inactive: -1.28% |
| O=C(N[C@@H]1COCC[C@H]1OCc1ccccn1)c1cnc(C2CC2)nc1 | inactive: 1.45% |
| O=C(c1ccc(Cn2cccn2)o1)N1CCCC2(CCC(=O)N(C3CC3)C2)C1 (centres undefined) | inactive: 0.608% |

| Structure (SMILES) | activity change, negative = inhibition |
| --- | --- |
| CC(=O)N1CCC(NC[C@H]2COCc3nc4ccc(C)cc4n32)CC1 | inactive: -2.61% [at 57.5 µM] |
| COc1ccc(-c2cnc(Nc3cccc(N[S+](C)(=O)[O-])c3)c3c2CCO3)cn1 | inactive: 7.43% [at 57.5 µM] |
| CCc1nc(C)c(C(=O)N2CCC(c3[nH]ncc3-c3ccccc3C)CC2)o1 | inactive: 0.649% |
| Cc1oc(C(O)c2ccccc2)nc1C(=O)Nc1ccncc1 (centres undefined) | inactive: 4.17% [at 57.5 µM] |
| COc1ccc([C@H]2C[C@@H](O)[C@@H](O)[C@@H]2NC(=O)c2cc3ccccc3s2)cc1 | inactive: 7.6% [at 57.5 µM] |
| CC(C)(C)CC(=O)N1CC[C@H]2CC(=O)N(Cc3cccnc3)CC[C@H]2C1 | inactive: 0.408% [at 57.5 µM] |
| COC(=O)C1=CN(CC(=O)NCc2cccc(OC)c2)S(=O)(=O)N=C1C | inactive: 5.16% |
| CC(C)C[C@@H]1N[C@H](C(=O)N2CCC(O)(c3ccccc3)CC2)Cc2cn(C)c3cccc1c23 | inactive: -0.0467% |
| COc1cccc(NC(=O)N[C@H](C)c2onc(-c3ccc(F)cc3)c2C(=O)O)c1 | inactive: 3.68% [at 57.5 µM] |
| COc1ccc(CNC[C@H]2COCc3nc4cc(F)ccc4n32)cn1 | inactive: -0.329% [at 57.5 µM] |
| O=C(O)c1cccc(CN2CC(CNc3ccccc3)C3(C2)CN(c2ccccc2)C3)c1 (centres undefined) | inactive: 0.366% [at 57.5 µM] |
| Cc1cccc(-c2ccc3c(c2)C(=O)N2C[C@H](O)C[C@H]2C(=O)N3)c1C | inactive: -1.55% [at 57.5 µM] |
| CC(=O)N1CC[C@H](c2nc3ccc(C#N)cc3[nH]2)C1 | inactive: 0.906% [at 76.7 µM] |
| C[C@@H]1C(=O)O[C@H]2[C@H]1CC[C@@]1(C)Cc3sc(NS(=O)(=O)c4ccc(Cl)cc4)nc3[C@@H](C)[C@H]21 | inactive: -0.513% |
| CNC(=O)[C@@H]1C[C@H](Oc2cccnc2)CN1C(=O)c1ccc(OC)nc1 | inactive: -0.275% |
| O=C(NC1CCCN(CCc2ccccc2)C1)C1(Cn2cccn2)CC1 (centres undefined) | inactive: -1.99% |
| O=c1cc(-c2cccnc2)oc2c(-c3cccc(CO)c3)nccc12 | inactive: 11.4% [at 57.5 µM] |
| O=C(NC[C@H]1COCc2nc3ccccc3n21)c1cccnc1 | inactive: -0.439% [at 57.5 µM] |
| C[S+](=O)([O-])Nc1cccc(-c2cc(-c3cccnc3)c3cncn3c2)c1 | inactive: 22.6% [at 57.5 µM] |
| CC(C)CN1C(=O)COC[C@@H]1[C@H](O)c1ccc(NC(=O)c2ccco2)cc1 | inactive: 9.23% [at 57.5 µM] |
| COc1cccc(NC(=O)N2CCN3C(=O)N(Cc4ccc(C)cc4)C[C@H]3C2)c1 | inactive: -1.16% [at 57.5 µM] |
| c1cncc(CN2CCn3c(nnc3C3CCCNC3)C2)c1 (centres undefined) | inactive: 53.6% |
| COCc1cn(C[C@H]2C[C@@H](NS(=O)(=O)c3ccccc3)[C@H](O)[C@@H]2O)nn1 | inactive: -1.54% [at 57.5 µM] |
| O=C(O)Cn1ccc2cc(OCc3cccc(-c4ccccc4O)c3)cnc21 | inactive: 17.2% [at 57.5 µM] |
